# Data: PubChem BioAssay AID1645882 (National Center for Advancing Translational Sciences (NCATS), 2021)
# The whole screen tested about 16,000 compounds, of which about 120 (0.75%) were called active. Another 4% or so got no clear call; they are omitted. Calls come from the whole dose curve; as a rule, active = well fitted inhibition curve with a large enough effect; inconclusive = small, poorly fitted or top-dose-only effect; inactive = no such curve, though single readings can be large or run the other way. Some of the results follow. The source holds several records for some structures; these can differ, active in one and inactive in another.
# Molecular target: Rap guanine nucleotide exchange factor 3 (Homo sapiens) (UniProt O95398)
# Assay: Validation qHTS for antagonist of cAMP-regulated guanine nucleotide exchange factor 3 (EPAC1);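 note: plate controls were DMSO for no effect and ATA control for full effect; nearly all actives have a fitted effect of over 75% in size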
# Details: EPAC1 Rap1B-BODIPY-GDP exchange, fluorescence; series mostly up to 150 µM; activity change, negative = inhibition: at the top concentration
# How it was run: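 EPAC1 (100 nM) mixed with 250 nM RAP1B-BODIPY-GDP and 50 uM GDP; compounds in concentration series, 5 min at room temperature. Fluorescence (ex 480/em 540 nm) read every 5 min for 30 min; normalized to ATA control and DMSO.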
# Chain of UniProt O95398 (O95398 whole entry, looked up): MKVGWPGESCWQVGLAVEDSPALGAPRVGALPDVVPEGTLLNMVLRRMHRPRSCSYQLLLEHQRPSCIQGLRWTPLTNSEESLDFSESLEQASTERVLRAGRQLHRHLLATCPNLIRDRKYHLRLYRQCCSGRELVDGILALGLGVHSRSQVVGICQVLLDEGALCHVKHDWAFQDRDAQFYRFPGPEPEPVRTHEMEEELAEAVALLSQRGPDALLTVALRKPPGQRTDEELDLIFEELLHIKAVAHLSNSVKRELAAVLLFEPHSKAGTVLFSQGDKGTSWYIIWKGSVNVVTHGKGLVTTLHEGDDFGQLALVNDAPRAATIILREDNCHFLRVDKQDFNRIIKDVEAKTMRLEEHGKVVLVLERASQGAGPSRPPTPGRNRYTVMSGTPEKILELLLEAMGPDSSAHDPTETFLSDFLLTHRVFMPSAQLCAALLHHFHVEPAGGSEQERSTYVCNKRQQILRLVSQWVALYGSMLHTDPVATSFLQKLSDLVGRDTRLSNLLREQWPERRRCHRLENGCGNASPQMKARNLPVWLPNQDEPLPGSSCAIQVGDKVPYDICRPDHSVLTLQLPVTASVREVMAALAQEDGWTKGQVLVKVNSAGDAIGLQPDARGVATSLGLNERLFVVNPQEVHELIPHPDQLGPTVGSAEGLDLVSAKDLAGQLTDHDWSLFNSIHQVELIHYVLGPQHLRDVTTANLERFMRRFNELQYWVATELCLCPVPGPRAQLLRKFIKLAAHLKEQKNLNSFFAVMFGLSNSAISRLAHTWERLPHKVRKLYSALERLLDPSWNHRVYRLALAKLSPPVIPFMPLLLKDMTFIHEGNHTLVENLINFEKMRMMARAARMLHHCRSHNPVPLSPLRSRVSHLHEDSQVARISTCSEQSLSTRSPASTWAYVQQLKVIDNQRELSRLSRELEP
row,Compound,"activity change, negative = inhibition"
1,CC(=O)O[C@H]1Cc2ccccc2N(C(N)=O)c2ccccc21,inactive: 10.8% [at 75.8 µM]
2,Cc1ccccc1C1(CC(=O)N2CC3CC4CC(C3)CC2C4)CC(=O)N(Cc2cccnc2)C1=O (centres undefined),inactive: 10%
3,COc1ccccc1CNc1ccnc(-c2ccc(N(C)C)cc2)n1,inactive: -21%
4,COc1cccc(-c2nc(NC3CC3)c3ccccc3n2)c1,inactive: -3.29%
5,COc1ccc(CC(=O)c2ccc(O)cc2O)cc1,inactive: 3.77%
6,O=C(NCC1Cc2cc(F)cc(-c3cccnc3)c2O1)c1cnn(-c2ccccc2)c1 (centres undefined),inactive: -1.33%
7,CCC(O)CNC(=O)c1cnn(-c2ncc3c(n2)-c2ccc(OC)cc2CC3)c1C1CC1 (centres undefined),inactive: 10.3%
8,COCc1c(C(=O)N2CCN(C(C)C)CC2)cnn1-c1nccc(-c2cc(C)sc2C)n1,inactive: -3.58%
9,CC(=O)OC1CC2C(C)(C)C(O)C=C[C@@]2(C)C2CC[C@@]3(C)C(c4ccoc4)OC(=O)C4OC43[C@]12C (some centres undefined),inactive: 2.42%
10,O=C(c1ccncc1)N1CCC[C@@]2(CCN(C(c3ccccc3)c3ccccc3)C2)C1,inactive: 9.79%
11,O=C(C[n+]1ccccc1Cl)c1ccc(F)cc1,inactive: 16.5%
12,COc1ccc(-n2ccc(-c3sc(NCc4cc(OC)c5c(c4)OCO5)nc3C)n2)cc1,inactive: -10.3%
13,Cc1cnc(CNc2nc(-c3cccc(NS(C)(=O)=O)c3)nc3ccccc23)cn1,inactive: 0.762%
14,C[C@H](NC(=O)/C(C#N)=C/c1ccc(O)c(O)c1)c1ccccc1,inactive: 11.1% [at 75.8 µM]
15,O=S(=O)(NCCNC/C=C/c1ccc(Br)cc1)c1cccc2cnccc12,inactive
16,C[S+](CC[C@H](N)C(=O)O)C[C@H]1O[C@@H](n2cnc3c(N)ncnc32)[C@H](O)[C@@H]1O (some centres undefined),inactive
17,COCCNc1ncncc1-c1ccccc1OC,inactive: -0.603%
18,Cc1ncc2c(c1CNC(=O)c1cncs1)CCN(C(=O)c1ccsc1)C2,inactive: 16.1%
19,C=C1C2=CC(=O)OC(c3ccoc3)[C@]2(C)CCC1[C@]1(C)C=CC(=O)C(C)(C)C1CC(=O)OC (some centres undefined),inactive: -0.716%
20,COc1c(C2=CC(=O)N(C)C2=O)c2c(n1C)C(=O)c1ccccc1C2=O,inactive: 29.9%
21,Cn1cc(-c2nc3cnc(OCc4ccccc4)nc3n(CCC#N)c2=O)c2ccccc21,inactive: 9.75%
22,CCCCC1=NC2(CCCC2)C(=O)N1Cc1ccc(-c2ccccc2-c2nn[nH]n2)cc1,inactive: 13.1%
23,Cc1ccc2nc(SCC(=O)NCC3Cc4cccc(-c5nc(C)cnc5C)c4O3)[nH]c2c1 (centres undefined),inactive: 6.05%
24,COc1c2c(cc3occ(-c4ccc5c(c4)OCO5)c(=O)c13)OC(C)(C)C=C2,inactive: 9.69%
25,CC(C)(C)c1cc(/C=C(\C#N)C(N)=S)cc(C(C)(C)C)c1O,inactive
26,COc1ccc(C(=O)NCCc2nnc3n2CCN(CC2CC=CCC2)CC3)cc1 (centres undefined),inactive: 10%

row,Compound,"activity change, negative = inhibition"
1,Cc1cnc(CNc2cc(-c3ccccc3C(F)(F)F)ncn2)cn1,inactive: 2.28%
2,Oc1cccc(O)c1O,inactive: -18.6%
3,COC1=CC(=O)C[C@@H](C)[C@]12Oc1c(Cl)c(OC)cc(OC)c1C2=O,inactive
4,COc1ccc(/C=C/c2cc(OC)c(OC)cc2CC[N+](C)(C)C)cc1,inactive: 21%
5,COc1cccc(-n2c(SC)nnc2C2CCN(CCC(C)c3ccc(C)o3)CC2)c1 (centres undefined),inactive: 6.03%
6,Cn1cc(-c2nc3cnc(N4CCOCC4)nc3n(CCC#N)c2=O)c2ccccc21,inactive: 41.4%
7,N#Cc1ccccc1OC[C@H](O)CNCCNC(=O)Nc1ccccc1,inactive: 8.31%
8,C=CCN1CC[C@@H](O)C(=C)S1(=O)=O,inactive: 2.18%
9,COc1cc(=O)n(C)c2c(OCC(O)C(C)(C)O)cccc12 (centres undefined),inactive: 12%
10,COc1ccc(CNc2ncncc2-c2c(C)noc2C)c(OC)c1,inactive: -7.26%
11,CCC1CN(Cc2ccc(COC)o2)Cc2cc(OC)ccc2O1 (centres undefined),inactive: -4.58%
12,COc1cccc(Cn2c(=O)c(-c3cc(F)cc(F)c3)nc3cnc(OC)nc32)c1,inactive: 2.88%
13,CN(C)CCC(c1ccc(Cl)cc1)c1ccccn1 (centres undefined),inactive: -6.76% [at 75.8 µM]
14,COc1cc(N)c(Cl)cc1C(=O)NC1CCN(CCCOc2ccc(F)cc2)CC1OC (centres undefined),inactive: 1.64% [at 75.8 µM]
15,C[C@H](O)C(=O)C1=Nc2c(nc(N)[nH]c2=O)NC1,inactive: 62.7% [at 75.8 µM]
16,CC(O)(COc1ccccc1)c1ccc2c(c1)CN(Cc1cccn1-c1ccccn1)CCO2 (centres undefined),inactive: -3.67%
17,CC(=O)N1CCC2(CC1)CCN(c1ncccn1)CC2,inactive: 10.6%
18,C=C1CC2C3CCC4=CC(=O)C=C[C@]4(C)[C@@]3(F)[C@@H](O)C[C@]2(C)[C@@]1(O)C(=O)COC(C)=O (some centres undefined),inactive: 19.9%
19,COC(=O)[C@H]1C(OC)[C@@H](OC(=O)c2cc(OC)c(OC)c(OC)c2)C[C@@H]2CN3CCc4c([nH]c5cc(OC)ccc45)[C@H]3C[C@H]21 (some centres undefined),inactive: -6.08%
20,O=c1c(-c2ccc(F)cc2)nc2cnc(Nc3ccccc3)nc2n1Cc1cccs1,inactive: 6.68%
21,Cc1cccc(CNc2ncnc3ccc(-c4c(C)noc4C)cc23)c1,inactive: 3.67%
22,CN(Cc1ccco1)c1cc(-c2cccnc2)ncn1,inactive: 13.6%
23,CN1Cc2sccc2C(c2ccc(O)c(O)c2)C1 (centres undefined),inactive: 20% [at 75.8 µM]
24,COc1cc2c(cc1OC)C(=O)OC2,inactive: 9.53%
25,CN1CCN(c2ncc3nc(-c4cccc(C#N)c4)c(=O)n(CCc4ccccc4)c3n2)CC1,inactive: 7.24%
26,COc1ccccc1N1CCN(CCN2C(=O)CC3(CCCC3)CC2=O)CC1,inactive

row,Compound,"activity change, negative = inhibition"
1,CC[C@H](C)N(C)C(=O)c1cc2ccccc2c(-c2ccccc2Cl)n1,inactive: -8.6%
2,OCC(O)CN1CCN(c2ccccc2)CC1 (centres undefined),inactive: 16.8%
3,COc1cccc2c3c(c(C)nc12)CC(CO)O3 (centres undefined),inactive: 20.5%
4,N#Cc1cccc(-c2cncnc2-n2ccnc2)c1,inactive: 26.5%
5,Cc1cc(C(=O)Nc2ccccc2-c2nc(CNC(=O)c3sc(C)nc3C)c(C)o2)c(C)o1,inactive: 17.6%
6,COCCn1c(=O)c(CCc2ccccc2)nc2cnc(OC)nc21,inactive: 22.4%
7,O=c1c(-c2cccs2)nc2cnc(N3CCOCC3)nc2n1Cc1cccs1,inactive: 27.6%
8,N#Cc1ccc(CN2CCC3(CC2)CCN(C(=O)c2cc(C(F)(F)F)cc(C(F)(F)F)c2)CC3)cc1,inactive: -29.9%
9,C#C[C@]1(O)CC[C@H]2[C@H]3CCC4=Cc5oncc5C[C@]4(C)[C@@H]3CC[C@]21C,inactive: 4.35%
10,CNC(=O)C[C@@H](N)C(=O)N[C@@H](C(=O)N[C@@H]1C(=O)N2[C@@H]1SC(C)(C)[C@@H]2C(=O)O)c1ccc(O)cc1,inactive: 0.579%
11,CO,inactive: 15.9%
12,CC(C)(C)C1CCC(=O)N(CCC#N)CC1 (centres undefined),inactive: 10.9%
13,CN1CCN(c2ncc3ncc(=O)n(C[C@H]4CCCO4)c3n2)CC1,inactive: 1.83%
14,O=C(O)CNC(=O)C(CS)Cc1ccccc1 (centres undefined),inactive
15,CCCCCCCC/C=C\CCCCCCCCN,inactive: 16.1%
16,O=C(O)c1ccc(NC2OC[C@@H](O)[C@H](O)[C@H]2O)cc1 (some centres undefined),inactive: 2.17%
17,COc1cccc(-c2cc(N(C)Cc3ccco3)ncn2)c1,inactive: -4%
18,CCCNC(=O)N1N=C(c2ccc(N)cc2)c2cc3c(cc2[C@H]1C)OCO3,inactive: -12%
19,Cc1ncc2c(c1CNS(=O)(=O)c1cccs1)CCN(C(=O)/C=C/c1cc(F)cc(F)c1)C2,inactive: -0.501%
20,Cc1nc2cnc(Oc3ccccc3)nc2n(C2CC2)c1=O,inactive: -4.69%
21,O=S1(=O)[C@H]2C[C@@H]3C=C[C@@]2(CN1Cc1ccc(F)cc1)O3,inactive: 11.2%
22,Cc1cccc(CNC(=O)c2cnn(-c3nccc(-c4cc5ccccc5o4)n3)c2C2CC2)n1,inactive: -4.64%
23,CN(C)CCCC1(c2ccc(F)cc2)OCc2cc(C#N)ccc21 (centres undefined),inactive: 17.1% [at 75.8 µM]
24,CN1CCN(c2ncc3nc(-c4ccc(Cl)cc4)c(=O)n(C4CC4)c3n2)CC1,inactive: 21.9%
25,COc1cccc(Nc2ncc3nc(-c4cccs4)c(=O)n(C[C@H]4CCCO4)c3n2)c1,inactive: 84.6%
26,Nn1nnc2ccccc21,inactive: -2.23% [at 75.8 µM]

row,Compound,"activity change, negative = inhibition"
1,CC(C)[N+](C)(C)CC(O)COc1cccc2ccccc12 (centres undefined),inactive: 16.8%
2,CCCC(CCC)C(=O)O,inactive
3,COc1cccc(N2[C@@H](CC(=O)O)c3ccc(/C=C/C(=O)O)cc3S2(=O)=O)c1,inactive: -7.59%
4,CCC1(C2CCN(Cc3ccc(C)s3)CC2)NC(=O)N(CC2COc3ccccc3O2)C1=O (centres undefined),inactive: -9.69%
5,Nc1nc2ncc(=O)[nH]c2c(=O)[nH]1,inactive: -13.7%
6,CC1/C=C/C=C/C=C/C=C/C=C/C=C/C=C/C(OC2OC(C)C(O)C(N)C2O)CC2O[C@@](O)(CC(O)CC(O)C(O)CCC(O)CC(O)CC(=O)OC(C)[C@H](C)C1O)CC(O)C2C(=O)O (some centres undefined),inactive: 34%
7,CC(C)CN1CCC2(CC1)CCN(C(=O)c1cc(C(F)(F)F)cc(C(F)(F)F)c1)CC2,inactive: 4.87%
8,O=C(Nc1ccccc1)N1CC[C@@]2(CCCN(C(=O)c3ccco3)C2)C1,inactive: -1.39%
9,CC(=O)Nc1ccc(SC[C@H](Cc2ccccc2)N2CC[C@@H](C)CCC2=O)cc1,inactive: 9.15%
10,COc1ccc(Oc2ncc3ncc(=O)n(C[C@H]4CCCO4)c3n2)cc1,inactive: -5.08%
11,COc1ccc2c(c1)CCc1cnc(-n3ncc(C(=O)NCCCN4CCOCC4)c3C)nc1-2,inactive: 21.9%
12,CCNc1ncc2ncc(=O)n(C[C@H]3CCCO3)c2n1,inactive: 19.1%
13,COc1cc(CNCc2cc3cc(C)ccc3nc2-c2ccc(F)cc2)cc(OC)c1OC,inactive: 10.1%
14,O=C(NCC1Cc2cc(-c3cncnc3)cc(Cl)c2O1)c1cccc(Cn2cccn2)c1 (centres undefined),inactive: 16.5%
15,CC(=O)N1CCC2(CC1)CCN(c1ccccn1)CC2,inactive: 23.7%
16,Cc1ccc(CN2CCOCCS2(=O)=O)cc1,inactive: -20.5%
17,COc1ccccc1CNCCCCCCNCCCCCCCCNCCCCCCNCc1ccccc1OC,inactive
18,CCCCCCC[n+]1ccc(C)c2ccccc21,inactive: 11.7%
19,CN[C@@H]1CCc2[nH]c3ccc(C(N)=O)cc3c2C1,inactive: -11.1%
20,NCCC(=O)O,inactive
21,COc1ccc(CNC(=O)[C@@H]2CC=C[C@@H]3CCN(Cc4ccccc4)C(=O)[C@@H]32)cc1,inactive: 3.37%
22,O=C1/C(=C/c2ccsc2)CC/C1=C\c1cccs1,inactive: 5.78% [at 75.8 µM]
23,Cc1ccccc1-c1nc(NCCN2CCOCC2)c2ccccc2n1,inactive: 27.3%
24,COCCn1c(=O)c(-c2ccccc2)nc2cnc(Oc3ccc(OC)cc3)nc21,inactive: 4.11%
25,c1csc(CNc2ncncc2-c2ccc3c(c2)OCO3)c1,inactive: 24.5%
26,O=C(CCCCCCCCCCCCC1CCCC1)Nc1ccc(S(=O)(=O)c2ccc(NC(=O)CCCCCCCCCCCCC3CCCC3)cc2)cc1,inactive: 15.3%
